Source: article PMC10726135
This is one part of the list. At the low end of the ranking the order means little. The protein was read in a cell extract, so binding may be indirect.

Biological target: T1, HNF4alpha8 (COS-7 nuclear extract) (UniProt P41235-5)
T1 sequence: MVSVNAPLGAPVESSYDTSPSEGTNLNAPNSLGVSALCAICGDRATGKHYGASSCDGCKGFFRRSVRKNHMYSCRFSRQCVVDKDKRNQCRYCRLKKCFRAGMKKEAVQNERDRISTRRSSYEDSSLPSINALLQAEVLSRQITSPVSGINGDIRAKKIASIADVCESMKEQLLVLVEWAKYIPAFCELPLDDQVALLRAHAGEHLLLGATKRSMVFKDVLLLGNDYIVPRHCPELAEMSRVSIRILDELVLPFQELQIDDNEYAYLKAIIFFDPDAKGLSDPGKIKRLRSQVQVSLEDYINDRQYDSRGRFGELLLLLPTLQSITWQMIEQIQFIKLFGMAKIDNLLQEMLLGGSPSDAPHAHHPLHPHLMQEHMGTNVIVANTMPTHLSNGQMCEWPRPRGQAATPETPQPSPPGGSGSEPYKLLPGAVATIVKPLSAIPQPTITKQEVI
Assay: protein-binding microarray
Conditions: COS-7 nuclear extract on double-stranded Agilent 4x180k PBM; binding buffer, salt, pH and temperature not given; high values mean tight binding; double strand, one strand shown; sequences stand for … in …GCCTAGGGAGATTAGAGTATCGGTCGA

Row | Sequence | binding signal (log2 normalized intensity)
1 | GATGTGTGTATCAATGGCCCCAGTGCACGT | 2.42
2 | GTGGTTGCTCGGAACACGAGGTGAGAGGCG | -1.26
3 | ACGAGCAAGTTTATTCCAAGACTCGCGATA | -1.13
4 | ACAGAGGTCAAAGAGCAATCATCAAGGTGG | 3.85
5 | TTTCCTGTGACTTTTGGCCAGAGTAAGGCG | 2.02
6 | CAAAAGTTCAAAGATATGATGGCCAGTTCA | 1.23
7 | GGCAGGGAAAGGGGGTTTGCAACCTTTGAT | 3.52
8 | TTTTTCCTGGATGCCAGGCAAGAGCTCAGA | -1.26
9 | CATCCTGGCGACAGCAACTAGCAACTTGGA | -0.937
10 | CAACCTCTCCAATGCTATGCTTTTATTTAA | -0.995
11 | TCTTTCAGAAACAAAGGGGGAGGGAGATAG | -1.28
12 | ATCTCCACAAACATACAACCATCAAAGGTC | 3.47
13 | CTTATAGCTCAACCCCCAAAACTGCCTGAT | 3.7
14 | TTGGAATGCCCTTATCTCATACCTTGCATG | 1.18
15 | CAACAAAGCATTATCTACACAGTAAGGTGC | -0.603
16 | GTTATCTAAATTAGATATGGCTTATACTTG | 0.892
17 | AAGATAAGCAGCATTCCACCAAATCTTACC | -1.47
18 | CCGCCCGACTACAACAGCCTTGCAGATAAG | -1.43
19 | TCAGGTCAGTAGCCCAGGGTCACACAGATG | 1.58
20 | TTCCATTGTACTCAGTATGTGCTGACTGAC | 0.312
21 | TTCTATGTTCACATCTCCTCTGGAGGCCAA | 1.33
22 | TAACCCTACAGTCCTGCCACATCCCCCACA | 4.33
23 | CCGGGGAAAGGGAAAAAGGGAGATAGGTTA | -1.32
24 | GAGAAACTTCTTTGTGATGTGTGGATTCAG | 1.31
25 | CCCCCTTCATCTGGGACGTGGCTCAAGATT | 0.804

Row | Sequence | binding signal (log2 normalized intensity)
26 | GATGGATATATGTACAGCTGTGTATGTGGC | 1.55
27 | TATAGGGCATACCCTTCCTGCTGACAAACT | -1.1
28 | CCAGGAGCAGGATAGAAGGAAACAGTTCAG | -1.25
29 | CAAGCAATCTGGCTGCAGAGTCCAAGATGC | 1.95
30 | GTCTAGCGCAAATGATCAAAGGTTGGTTTT | 4.43
31 | TTTGCTTATCTGATAAGTCCATACCTAGTC | 1.07
32 | AACAAGTTCTGCAGACTCCCTAGAAGAGTG | -1.3
33 | CCAGAAGGAATGAGACATGAATCCATCCCA | -1.23
34 | TTTCTGTATAAGACAACCTTTGTTCACAGT | 4
35 | TAGAGCTGTCCAGCAGACAATGGGAGACAT | -1.3
36 | ACTCACACACCCCAAAAGGTCAATCTGGAT | 3.9
37 | TGAGCTCTGATGGCGTATGCAGCAGGGCAG | -1.35
38 | GATCAAAGAATTCCTAATAATACTGACTGA | -1.13
39 | AAAAGCCAAGGCATCTGGGGGCTTGTCAGA | -1.31
40 | GGCAGTAAGATAAGGAGGTAGAGTCTAAGG | -1.35
41 | TCAGATAGCTTTAGCCGGACTTTGTCCTTT | 8.54
42 | GCCGTGCATGCTTGGACTCTGAAGGAATGT | 2.29
43 | TGTTAGAGGGTGGTGGGTGAAGGATGGAAT | 0.332
44 | TAATTACAGAGCAAGTAGAGCTGCTTACAT | -1.34
45 | AGGAGTTTGTTCACCCACCAGAGGGAACGC | -1.19
46 | GGTTCACCGCTCACTGCTCCAGCCACTCAT | -1.02
47 | GTGGCTAGGACCTTTGAACCAGAGAAGATT | 4.11
48 | AGTATCTTAGCCAAAGAGAAGCCTAAGCAG | -1.35
49 | CTGTGTCATCTGAACTCTGACCAACGCCTC | 3.23
50 | CAGCAGACACGGGCAGGTGAGAGGGCTCTG | -1.33

Row | Sequence | binding signal (log2 normalized intensity)
51 | CTAGCTACTAGCCATTTCGGCACCTTCTAC | -1.35
52 | TCAAGGACCTGCTCTGGGGCTACCTCAGGG | -1.48
53 | ATGTAAGGCACTTTATCTAGATAAGTTTAT | -1.26
54 | CATGGACAGCACTTAGGGTTCAAAGGTTGT | 6.85
55 | ACCATGGATGCACTCCATTTACAGACCAAT | -1.31
56 | TCAAGAAGGGCAGTTGACAGAGGACCAAGG | -1.38
57 | TGTTCATACTGCAGCTCTGCGTCTTACTAA | -1.08
58 | GCAGCTCCAATTAGGAGATCAGCCCGTGTC | -1.36
59 | TTTACCGAAATGTGGGTGAGGCTGTGATGT | 1.33
60 | GGTTCAGCTCCATCTGAACTCTTCATGGAC | 1.79
61 | CCTGTCACTCAATGCAGCAGCATTGGACCC | 6
62 | CCTAGGTGCTGAAGATGCAACAGTGACCCA | 3.1
63 | TCCAATTAGGAGATCAGCCCGTGTCTGGGC | -1.21
64 | CTTAGGGTCAATGGGACATTGCATTCCACC | 1.64
65 | TGTCGTTTTCCCGGTTTGTTCCATGCCACA | 1.67
66 | ATAGCGTCTCCTGGCCTCTGTGAAGTGGAG | -0.781
67 | CAGGCCTAACCCCTAACCCAGTGAATTCCT | 2.67
68 | CTGGATGTTTTGATGAACTTTCAAGATGAA | 1.71
69 | TTGCTGTCTCTTCCACCTGGAATGCACTTG | 1.67
70 | GGGAGGTGTTTATCTTGTGGTTGGAATGTT | 2.45
71 | CCCCGCGTCCGTGCACCCTTCCTCTGCAGC | 0.846
72 | CTTTCGCCCTTTGTCCTATGACTCTCTCAA | 3.75
73 | TGAGCACACACTCACGGACCCTGTTACCAC | 0.686
74 | ACAGATGGTGACCAGACTACCTCTTTAGGC | -1.21
75 | GACCTACTTAGTCTCCAGCCCCCAGAGGTC | 4.63

Row | Sequence | binding signal (log2 normalized intensity)
76 | CCAAGAACAAACAAAAACCAAAAAAACTTA | -1.41
77 | AGCATCTAAACCTCTGCACACAGGATGTTT | -1.46
78 | TGCTGTCTAGAAAGATTGCAGCAAGGAATT | -1.25
79 | CTCCACTACATTAGCAGCGCCACCAACCAT | 4.03
80 | GGAGATAACCCATCTGGGGAAAGTGCAAGG | -1.21
81 | AGGGAGCAGAGTCCCAAGCATCTCTGAGCA | -1.27
82 | GGCTGTGTCGGTATAAGTTCTACATTCCCA | -0.19
83 | CTCCAGGGCACTGCCCTTTGGAACCTGCCC | 6.57
84 | AGGGTAGGAGAAGCTGGAAGGACAGCATTC | -1.29
85 | TGAACACAGTTCGAACAGTTGGCCACCTTT | 2.13
86 | TGAAGTTGGATAACCTTCTGCTGGATGCCC | 1.02
87 | AATCATGTAGCCAGATAAGAGCTATCAATG | -1.45
88 | GGGTTGGTATTACAAAGCAATCTACTTTTC | -0.643
89 | CAGATTCCTGAGCCCAGATCCTCTAAATTC | -1.33
90 | CCTTTCCCCTAAAGGAGGCAAGGTCCAAAC | 4.36
91 | CTAAAAAAATAGTTTCAACTTAACCCCAGT | 3.24
92 | CCCTGCCTAAACAAGGCAGACTTGGATTTT | 0.308
93 | TATGGCTGGGATATCAGGTATTGCCCAGTA | 0.921
94 | TATTGAGAAGAAACCTTTGCCCAACAGGAT | 2.13
95 | TCCGTGGTAACACACATTAGCTTCCCGGCT | -1.34
96 | CACGGTAGCATGCTCTCTTGTCAAGACCGA | -1.23
97 | CAGTTATCAGACAGAGGAATTCAGCAGGAT | -1.07
98 | TGACTAGATTTCTGTCTGTTTTCCCCTTCC | 2.64
99 | CATTTGAACCCAACCGTCCAGAGTCCACGT | 4.68
100 | CAACTGACATCTGGAAATGTTTGTAGGGAC | 0.67

Row | Sequence | binding signal (log2 normalized intensity)
101 | CCATGGTAAGAACTACAGTTGACCTTTGAA | 8.15
102 | CTGGGCAGGCGCCGACTGCCAGGAGGGGAC | -1.33
103 | GCAACCACAGCCTCTGCATTTGCTCCCTGA | -0.299
104 | ATCTTATCGCCTAGTACTCCTGCCCCTGTG | 2.3
105 | TAGGGCCCCCTGTGATTACTTCCACTCTTG | 0.851
106 | AGTAGGTTTACTAAAGGAAGGGAGGTGAGT | -1.39
107 | TTCATCCTCCCATACAGGATCGGTCACATT | 1.74
108 | ACTATCAGTGAAGAGCAAACAATCAGTGAA | -1.31
109 | AATAGGCCCTCCCAGCCTATTAACCCCAAA | 5.39
110 | TTCAGCAAATATTGAATGTGTTACACCTGT | 1.33
111 | CATATCTAGGATCACGCCATGAGTTGGGGA | -0.161
112 | AAATCCCCGCCTTTGACACAGGCGACCTTC | 4.58
113 | CCAGATTCCAGCCTCCTGCTCTGGGCTTTC | -1.27
114 | GGAAAGGGGGTTTGCAACCTTTGATAACCT | 2.82
115 | GGGTCCAAAGAACATTGCATTCCTTTGTTT | 2.18
116 | AGGACTTCTAGAGTGAGCCATTTATCAGGG | -1.31
117 | AGCTTGGGTTCACATTCCAGCTCTGTGACT | -0.0998
118 | CAATCTGGATTGTACTGTGTCTTGATCTTG | 1.91
119 | GACAAAGGCCGCGCCCGCCCGCGCCGGCCT | -1.38
120 | ATGCTAAAGTCTACATTCTAGATGACCCCT | 6.17
121 | GACATTCCTTCAGCGTGAACTTTGACATGA | 6.23
122 | ACAGCACTTTGGCGTGCTGTGTACTTTGAA | 4.92
123 | TTCTTGACCTGCGTAGCCCAAAGGTCAGTC | 5.04
124 | CTTCATCAATCAGCCTGATACCAGATCCTT | -0.921
125 | GGAAGACTTCATTCAGGTAGCAGGCCTCAG | -1.31

Row | Sequence | binding signal (log2 normalized intensity)
126 | CCCACCAGGGGGAGGCTCAGAGTCTGTGGA | -1.32
127 | CAGACTTTCCCCCTATTTCCCTCTGTGCCC | 3.18
128 | AGCTGGGAGACCACTGGTGTAAGCTCTGGA | -1.24
129 | ATTACTCCCACCGTGTGTGCACTTTAAATT | 1.93
130 | GACAAACCAGTCCCATCTGTGCTCATTATT | 0.687
131 | TCCTGGGTCCACCGTGCGCAAACACACCCA | -1.23
132 | CCCCTTTGAAGTCTGCCCTCCATGTAACCC | 3.79
133 | TTAAATCCTCGAAGAGTTTGAACTATGTAC | 4.71
134 | TGGGATGAGAGAGCCCCTGTGATACAACGG | -1.34
135 | CAGAGAAAGAGAGAGTTAGTTCTGCAAACA | -1.33
136 | TGGATTGTGTTGCACTGTTTGCATAAAGTT | 1.66
137 | GCTGCAAAATTTGAACAAAAAAAGAAGAGC | -1.28
138 | TGTGCACACTTAGAAAATGCCCTCAATCAA | 1.86
139 | CAAGGGTCAATCCTCTCTTTGGAATGTGCA | 2.46
140 | AGTCCTGACCTTGGACTCTGCCCTTGGCCT | 6.67
141 | TGTTACTTATAAATAATCTCAACCATACAA | -1.22
142 | TGATAGCCATCTGGTGGACTTTGCTCTGCT | 8.15
143 | CCTAACCACCTGACCACAACACACAAGAAC | -1.24
144 | TCTCACTGACTCACGGCAGCTTGTACCCTT | 3.01
145 | AGGGTGTGTAAAACAGGTGAAAGATAAGGG | -1.42
